In PubChem BioAssay AID894 (National Center for Advancing Translational Sciences (NCATS), 2007):
Screen size: about 150,000 compounds; about 6,500 (4.3%) were called active. The inconclusive results got no clear call from the source; some entries with a clear call stand among them for comparison. Calls come from the whole dose curve; as a rule, active = well fitted inhibition curve with a large enough effect (not every such curve was filed as active); inconclusive = small, poorly fitted or top-dose-only effect, or another doubt; inactive = no such curve, though single readings can be large or run the other way. Where the call is inconclusive, the potency comes from a doubtful curve fit. More than one record can exist for a structure, and the calls need not agree.

target: 15-hydroxyprostaglandin dehydrogenase [NAD(+)] (Homo sapiens) (UniProt P15428); experiment: qHTS Assay for Inhibitors of HPGD (15-Hydroxyprostaglandin Dehydrogenase); conditions: purified HPGD, NADH fluorescence kinetic, PGE2 substrate; activity change, negative = inhibition: active compounds read low
Procedure, shortened: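 NADH formation kinetics: reaction with 30 uM PGE2 and 1 mM NAD+ (final), 20 nM enzyme, Tris-HCl pH 8 with Tween 20, after 15 min compound preincubation at room temperature. Fluorescence change, last versus first of five reads.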
% is set by controls: 0 for no effect and ±100 for the full control effect; potency is the fitted concentration of half-maximal effect; tags give direction and shape of the fitted curve.

UniProt P15428, sequence (P15428 whole entry, looked up): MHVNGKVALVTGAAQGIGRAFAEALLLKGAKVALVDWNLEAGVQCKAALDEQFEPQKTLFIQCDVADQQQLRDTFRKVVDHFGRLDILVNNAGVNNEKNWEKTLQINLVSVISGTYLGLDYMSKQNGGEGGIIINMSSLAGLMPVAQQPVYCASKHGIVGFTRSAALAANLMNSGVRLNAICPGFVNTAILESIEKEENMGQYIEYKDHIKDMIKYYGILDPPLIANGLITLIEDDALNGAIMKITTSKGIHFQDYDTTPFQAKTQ

Potency, inconclusive:
CCS(=O)(=O)Nc1ccc(-c2nnc(SCC(=O)c3cccc(OC)c3)o2)cc1 11.2 µM [inhibitor, partial curve, poor fit], Cc1cccc(CN2C(=O)N/C(=C/c3cc(C)n(-c4cc(C)ccn4)c3C)C2=O)c1 20 µM [inhibitor, partial curve], Cc1cccc(Oc2sc(C(=O)c3ccccc3)c(N)c2C#N)c1C 31.6 µM [inhibitor, partial curve, poor fit], O=C1OCCN1C(=O)[C@H]1[C@H](c2ccc(F)cc2)C(c2ccccc2)=NN1c1ccc(Br)cc1 28.2 µM [inhibitor, partial curve], O=C(N/N=C/c1ccsc1)c1cc(-c2cccs2)nc2ccccc12 25.1 µM [inhibitor, single point], O=C(COC(=O)c1cccnc1Nc1cccc(C(F)(F)F)c1)NCc1ccc2c(c1)OCO2 35.5 µM [inhibitor, single point], Cc1nc2ccc(NC3=NCCCCC3)cc2s1 35.5 µM [inhibitor, single point], COC(=O)Cn1c(=NC(=O)c2cc(-c3cccs3)nc3ccccc23)sc2cc(S(N)(=O)=O)ccc21 35.5 µM [inhibitor, single point], COc1ccccc1NC(=O)CC(c1ccc(OC(C)C)cc1)c1ccccc1OC (stereo not given) 25.1 µM [inhibitor, partial curve, poor fit], CN(C)c1ccc(-c2nn3c(-c4ccccc4Cl)nnc3s2)cc1 25.1 µM [inhibitor, partial curve], O=c1[nH]c(-c2ccccc2O)nc2c1CCCC2 10 µM [inhibitor, partial curve], CC(=O)c1ccc(OCc2cc(=O)n3ccsc3n2)cc1 22.4 µM [inhibitor, partial curve], CCOC(=O)N1CCN(C(=O)c2ccc(NC(=O)CC)cc2)CC1 35.5 µM [inhibitor, partial curve], CC(C)C(=O)Nc1sc2c(c1-c1nc3ccccc3[nH]1)CCCC2 15.8 µM [inhibitor, partial curve], CC1(C)Cc2c(c(-c3ccco3)nc3sc4c(NCC5CCCO5)ncnc4c23)CO1 (stereo not given) 17.8 µM [inhibitor, partial curve], CC(C)CC1=C/C(=C/c2ccc(-c3ccccc3)o2)C(=O)O1 31.6 µM [inhibitor, partial curve], CCOC(=O)c1ccc2nc(NC(=O)c3cccs3)sc2c1 10 µM [inhibitor, partial curve], O=C(CSc1nnc(-c2ccccc2O)o1)Oc1ccc(OCc2ccccc2)cc1 31.6 µM [inhibitor, partial curve], CC(C)OC(=O)c1c(NC(=O)c2cccs2)sc2c1CCCC2 31.6 µM [inhibitor, partial curve], CCOC(=O)C(=Cc1cc(=O)c(OC)co1)C(=O)OCC 31.6 µM [inhibitor, single point], O=C(/C=C/c1ccc(Cl)cc1Cl)Nc1cccc(S(=O)(=O)NC2=NCCCCC2)c1 28.2 µM [inhibitor, single point], O=C(Nc1ccc2c(c1)nc1n2CCN(Cc2ccccc2)C1)NC1CCCCC1 31.6 µM [inhibitor, partial curve], CC(=O)Nc1ccc(-c2cc(-c3ccc(NC(C)=O)cc3)nc(-c3ccc(NC(C)=O)cc3)n2)cc1 28.2 µM [inhibitor, partial curve], O=C(CN1CCN(CC(=O)c2ccc(F)cc2)CC1)Nc1ccccc1Cl 39.8 µM [inhibitor, single point], CCCCc1nc(N2CCOCC2)c(C#N)c2c1COC(C)(C)C2 28.2 µM [inhibitor, partial curve], O=C1NC(=O)C(Nc2cccc3ccccc23)S1 (stereo not given) 28.2 µM [inhibitor, single point], O=C(O)C1CC(=O)N(Cc2ccc3c(c2)OCO3)C1 (stereo not given) 3.98 µM [inhibitor, single point], COc1ccc2c(c1)c(CCN1C(=O)c3ccccc3C1=O)cn2C(=O)c1ccco1 22.4 µM [inhibitor, partial curve], CCOc1ccc(-c2nc(C#N)c(N3CCCCCC3)o2)cc1 35.5 µM [inhibitor, partial curve], Cc1[nH]c2ccccc2c1C(=O)C(=O)N1CC=C(c2ccccc2)CC1 28.2 µM [inhibitor, partial curve], CCOC(=O)c1ccc(-c2ccc(/C=N/NC(=O)CN(c3cccc(C)c3)S(C)(=O)=O)o2)cc1 35.5 µM [inhibitor, single point], CCC1Oc2ccc(C)cc2N(CC(=O)N(Cc2ccc(C)o2)C2CCCC2)C1=O (stereo not given) 39.8 µM [inhibitor, single point], O=C(NCCc1ccccc1)c1ccc(Br)o1 28.2 µM [inhibitor, partial curve], CCOC(=O)c1cc2cc(-c3c(C(=O)OCC)oc4cc(O)cc(O)c4c3=O)ccc2o1 17.8 µM [inhibitor, partial curve], Cc1cccc(NC(=O)Cc2noc3ccccc23)c1 20 µM [inhibitor, partial curve], COC(=O)c1sccc1NC(=O)Nc1ccc(Cl)c(Cl)c1 39.8 µM [inhibitor, single point], CCCOc1ccc(CCc2n[nH]c(=S)n2Cc2ccccc2)cc1 14.1 µM [inhibitor, partial curve, poor fit], O=C(c1cccc(F)c1)N1CCC2(CC1)CCN(c1ccccn1)CC2 31.6 µM [inhibitor, single point]

Potency, active:
CC(=O)c1ccsc1-c1c(C)cc2oc(=O)cc(-c3ccccc3)c2c1C 39.8 µM, O=C(CSc1nc2ccc(Nc3nc(N4CCOCC4)nc(N4CCOCC4)n3)cc2s1)N1CCOCC1 22.4 µM, CCC(=O)N(CC)C1=C(O)c2ccccc2C(=O)C1=O 12.6 µM, Cc1ccc(-c2n[nH]c(=O)c3ccccc23)cc1S(=O)(=O)NCCO 14.1 µM, CC(Cc1ccccc1)C(=O)N(C)Cc1ccccc1 (stereo not given) 5.01 µM, CCOc1c(Br)cc(/C=C2\C(=O)N(CCC#N)N=C2C)cc1OC 5.01 µM, CN(C(=S)NC(=O)CCCOc1ccc(Cl)cc1Cl)c1ccccc1 11.2 µM, O=c1[nH]c(NCc2ccccc2)nc2c1CCCC2 12.6 µM, COc1ccccc1CNC(=O)C1CCCN1S(=O)(=O)c1cccc2cccnc12 (stereo not given) 22.4 µM, CCCCNC(=O)CSc1nc2ccccc2n1S(=O)(=O)c1ccc(Br)cc1 2.51 µM, CC1CCN(C(=O)C(C)Sc2nc(-c3ccccc3)cc(C(F)(F)F)n2)CC1 (stereo not given) 15.8 µM, Cc1ccc(-c2cc(C(=O)NC3=NCCS3)c3cc(Br)ccc3n2)o1 2.51 µM

Activity change, negative = inhibition, inactive:
Clc1ccc(OCCCCSc2ncccn2)cc1 -25.4%, CCOC(=O)C1CCCN(C(=O)COC(=O)C2=COCCO2)C1 (stereo not given) -8.69%, Cc1cc(Cl)c(S(=O)(=O)Nc2cccc(O)c2)cc1OCC(N)=O -2.04%, COc1cc(C(=O)NCCc2cn3ccccc3n2)cc(OC)c1OC -1.88%, CC(/C=C/c1ccco1)=N/NC(=O)OC(C)(C)C -10.5%, O=[N+]([O-])c1cc2c(c(CSc3nnc4ccccn34)c1)OCOC2 -14.8%, Cn1nccc1C(=O)N1CCN(c2ccc(F)cc2)CC1 -13.7%, C[C@@]12CCC(=O)C=C1C=CC1C2CC[C@]2(C)C1CC[C@@]21CCC(=O)O1 (stereo not given in full) -0.464%, CN1CCN(c2ccc(Cl)cc2NS(=O)(=O)c2ccccc2Cl)CC1 -9.41%, COc1ccc(C(=O)C(C)Oc2cccc(NC(=O)c3cccc([N+](=O)[O-])c3)c2)cc1 (stereo not given) -17.3%, O=C1CC(c2ccc(F)cc2)CC(O)=C1C=NCCN1CCN(C(=O)Nc2ccccc2)CC1 (stereo not given) -4.17%, CN(C(=O)c1ccccc1C(=O)OCC(=O)NCc1ccccc1)C1CCCCC1 -3.19%, O=c1oc2cc(N=Cc3ccc4c(c3)OCO4)ccc2c2ccccc12 -13.9%, CC(C)Oc1cccc(C(=O)NC(=S)Nc2cccc(NC(=O)c3ccccc3Cl)c2)c1 -10.1%, CCC(=O)N1c2ccc(C)cc2C2=NNC(=S)NC21O (stereo not given) -3.29%, COc1ccc(CCNc2cc(=O)[nH]c(N)n2)cc1 -9.9%, COc1ccc(-c2ccc(-c3cc(=O)oc4cc(OC)c(OC)c(OC)c34)cc2)cc1 0.596%, Cc1oc2ccc(O)cc2c1C(=O)c1ccc([N+](=O)[O-])cc1 -9.07%, O=C(c1ccco1)N1CCCC(c2nc(-c3ccc(S(=O)(=O)NCc4ccccc4)cc3)no2)C1 (stereo not given) -22%, CN(C)CC(=O)c1ccc(-c2ccccc2)cc1 -22.4%
